Measured values reported in ChEMBL document CHEMBL5308541, “MAIP: An Open-Source Tool to Enrich High-Throughput Screening Output and Identify Novel, Druglike Molecules with Antimalarial Activity” (ACS Med Chem Lett, 2023).
Screen size: about 150,000 compounds; about 540 (0.36%) showed an effect of 50% or more. This is one part of the list.

Test system: Plasmodium falciparum
Experiment: Primary screen in NF54 nanoGlo assay, in single point, at 2uM, 72h; a lower Z score goes with more inhibition
Type: functional, Erythrocyte
Conditions: timepoint 72 hour

SMILES | % Inhibition | Z score
COc1cc(CNC2(c3cccc(F)c3)CCOCC2)ccc1C | -12% | 2.65
CN(C(=O)[C@H]1CC[C@H](Nc2cnccn2)CC1)C1CCNCC1 | -1% | 0.25
Cc1nncn1CCN1CCC[C@H](CNC(=O)c2ccnc3ccccc23)C1 | 5% | -0.83
Cc1ccoc1C(=O)NCCCNc1nc2ccccc2[nH]1 | 0% | -0.01
Fc1cnc(Nc2cnn(CCN3CCCCC3)c2)nc1 | -5% | 0.8
Cc1nn(C)c(C)c1CN(C(=O)c1cnc(N2CCOCC2)nc1)C1CC1 | -5% | 0.91
Cc1ccsc1CN(C)C(=O)c1coc(COc2ccc3ncccc3c2)n1 | -5% | 1.05
CC1(C)C2CC(NCc3ccc(Oc4ccc(F)cc4)nc3)[C@](C)(O)C1C2 (stereo partly drawn) | -11% | 1.65
Nc1ccc2[nH]c(-c3ccc(Cl)cn3)nc2c1 | 6% | -1.11
c1ccc2oc(N3CCN(c4ncnc5cc[nH]c45)CC3)nc2c1 | 1% | -0.16
Cc1cccc(OC2CN(Cc3ccc4[nH]ccc4c3)C2)c1 | -6% | 1.24
Fc1ccc(Oc2cc(N3CCN(CCN4CCOCC4)CC3)ncn2)c(Cl)c1 | -4% | 0.72
OCc1cccc(CNCc2cnc3c(-c4ccccc4)cnn3c2)c1 | 0% | -0.01
CC1CCN(C[C@H](C)NC(=O)c2ccc3cnccc3c2)CC1 | 2% | -0.29
N#Cc1c(F)cccc1NCCc1nc2cc(F)ccc2s1 | 7% | -1.17
FC(F)(F)c1nccc(NCCN2CCC(c3ccccc3)CC2)n1 | -6% | 1.13
O=C(C1CCC1)N1CCC(NCCN2CCC(c3ccccc3)CC2)CC1 | -17% | 2.91
COc1cccc(CNCCN2CCC[C@H](O)C2)c1OCCn1ccnc1 | -2% | 0.42
COc1cccc(-c2nc3cc(C#N)ccc3[nH]2)n1 | 0% | 0.04
O[C@@H](CNc1nc2cnccc2s1)c1ccc(C(F)(F)F)cc1 | -5% | 0.69
CN(CC[C@H]1CCCCN1C)C(=O)c1cncc(-c2cnn(C)c2)c1 | -4% | 0.74

SMILES | % Inhibition | Z score
Cc1ncc(Cl)c(NCc2cc(C(C)(C)C)n[nH]2)n1 | -9% | 1.51
COc1cc(-c2nc3c(cnn3C3CCCCC3)[nH]2)ccc1O | -2% | 0.42
Nc1nc(NCCO)cc(N2CCC(n3c(=O)[nH]c4ccccc43)CC2)n1 | 2% | -0.38
c1cncc(-c2ccc(CNC3CCN(Cc4cccs4)CC3)cc2)c1 | 37% | -8.03
CC(C)(C(=O)NCC1(CCO)CC1)c1c[nH]cn1 | 0% | 0.05
CC(C)OCCN1CCN(c2ncc(F)c(NCC(F)F)n2)CC1 | 2% | -0.4
O[C@H]1CCCN(CCCNc2cc(N3CCCCC3)ncn2)C1 | -2% | 0.45
O=C(CC1CCCC1)Nc1cccc(N2CCC(NC[C@@H](c3ccccn3)N3CCOCC3)CC2)c1 | -6% | 1.17
CCOc1ccc2nc(N3CCCN(Cc4c(C)nn(CC)c4C)CC3)nc(C)c2c1 | 22% | -4.29
O=C(Nc1cncnc1N1CCCC1)[C@H]1CCCN(CC(F)(F)F)C1 | -15% | 2.28
CN1CC[C@@H](CNc2cnc3cc(F)c(F)cc3n2)[C@@H]1c1cccnc1 | -5% | 0.99
CC1CCN(CC(O)CNC2CCCN(c3cccnn3)C2)CC1 (stereo not drawn) | -12% | 2.15
CN1CCCC(C(=O)N2CCC(Oc3cncc(N(C)C)n3)C2)C1 (stereo not drawn) | 3% | -0.58
O=C1COc2cc(S(=O)(=O)Oc3ccc(Cl)c4cccnc34)c(Cl)cc2N1 | -3% | 0.6
CCc1[nH]ncc1C(=O)NCCc1ncn(C)c1Br | 0% | -0.03
Cc1ccn(CCN2CCC(N3CCC[C@H](C(=O)N4CCOCC4)C3)CC2)n1 | -8% | 1.36
Cn1nc(C#CCN2CCOCC2)c(C#CCN2CCOCC2)c1C#CCN1CCOCC1 | -5% | 0.95
CC(C)(C)OC(=O)N1CCC(CC(=O)Nc2ccccc2-c2nc3ccccc3[nH]2)CC1 | -9% | 1.48
Cc1nccn1-c1cncc(NCCCN2CCCO[C@@H](C)C2)n1 | -13% | 1.9
COC(=O)c1ccc(C)c(Nc2ncnc(NC3CCCC3)c2C#N)c1 | -9% | 1.34
CCCC1COCC2CN(C(=O)c3ccnc4ccccc34)CCN12 (stereo not drawn) | -1% | 0.16

SMILES | % Inhibition | Z score
Cc1cnccc1NCCNc1ncc(F)c(N2CCCC2)n1 | 25% | -3.87
CCN1C[C@@H](CN(C)c2cc(C)nc3ccc(C(F)(F)F)cc23)CC1=O | 0% | 0.08
C[C@H]1c2nc(N)nc(-c3ccncc3)c2CN1Cc1ccnc2ccccc12 | -7% | 1.32
CC(C)C1OCCCC1Nc1cc(N2CCC(n3ccnc3)CC2)ncn1 (stereo not drawn) | -14% | 3.08
CN1CCC(N2CCN(C(=O)c3cc(F)ccc3OCCCN)CC2)CC1 | 8% | -1.59
C#Cc1ccc(C(=O)N2C[C@H](N(C)C)C3(CCOCC3)C2)cc1 | 0% | -0.1
c1cc2cc(-c3cnn(CC4CCNCC4)c3)cnc2[nH]1 | -2% | 0.24
COc1ccc2[nH]c(CNC(=O)[C@]3(C)CCc4c(C)c(O)c(C)c(C)c4O3)cc2c1 | -8% | 1.62
Cc1nc2c([nH]1)CC[C@H](C(=O)Nc1cc(C(C)(C)C)no1)C2 | 2% | -0.31
O=S(=O)(Nc1cncc(N2CCCC2)n1)c1c[nH]c2ccccc12 | -2% | 0.31
CC(=O)N1CC2CCC(C1)N(C(=O)COc1ccc3ccccc3c1)C2 (stereo not drawn) | 0% | -0.03
OCC[C@H]1CN(c2cc(N3CCCCC3)ncn2)CCN1C1CCCCC1 | -24% | 4.72
Cc1sc(NC(=O)c2c(C3CCC3)cnn2C)nc1-c1c[nH]c2ncccc12 | -5% | 0.78
Cc1ccc(-c2ccnc(N3CCC(NCc4nc[nH]c4C)CC3)n2)c(C)n1 | 5% | -0.7
Cc1cc(Nc2cnn(CC(C)C)c2C2CC2)nc(C2CC2)n1 | -9% | 1.74
Cc1cc2nc(N3CCC(N4CCC(Oc5cccnc5)CC4)CC3)nc(C)c2cc1C | -15% | 2.6
O=C(N[C@H]1CC[C@H](Oc2cnccn2)CC1)c1ccc2[nH]ccc2c1 | -3% | 0.48
COC(=O)[C@@H](C)Cc1ccc(NC(=O)N(C)C(C)C)cc1 | -13% | 2.25
N[C@H](c1ccccc1)c1nnc(NCc2ccccc2-n2ccnc2)o1 | 4% | -0.72
Cc1nc(NCCNC(=O)[C@@H]2CCC(=O)N2)cc(Nc2ccccn2)n1 | -11% | 1.98
COc1cc(Br)ccc1CNCC1(OC)CCOCC1 | -9% | 1.92

SMILES | % Inhibition | Z score
CCc1ccc(NC(=O)C2CC3(C2)CS(=O)(=O)C3)cc1C | -16% | 2.81
CCN1CCN([C@H]2CCN(c3nccc4cc(OC)c(OC)cc34)C2)CC1 | 12% | -2.08
CN1CCC(CNc2nccc3cccnc23)CC1 | 2% | -0.48
CN(CC1(CO)CCOCC1)c1nc(-c2cccnc2)nc2c1cnn2C | 0% | 0
COc1cccc([C@@H](CNc2ncnc3c2cnn3C)c2c[nH]c3ccccc23)c1OC | 7% | -1.03
OC1CN(C2CCCC2)CC1N1CCN(c2nsc3ccccc23)CC1 (stereo not drawn) | -1% | 0.18
C[C@H](O)CN1CCC(CN(C)CCCN2CCOCC2)CC1 | -10% | 1.8
COC1COCCC1Nc1cc(-c2nc(C)no2)ccn1 (stereo not drawn) | 5% | -0.98
Cc1nc(N2C(=O)N[C@](C)(c3ccccc3)C2=O)sc1C | -1% | 0.26
Nc1nc(N2CCN(Cc3c[nH]cn3)C[C@H](O)C2)c2c[nH]nc2n1 | -5% | 0.95
Cn1c(-c2ccccc2)c(-c2csc(Nc3ccccc3C(F)(F)F)n2)c2ccccc21 | -7% | 1.2
CCOc1ccccc1C(=O)N1CC(O)C(Cc2cc(C)[nH]n2)C1 (stereo not drawn) | -4% | 0.67
CC1NCCOC1c1ccc(-c2cnn3ncccc23)cc1 (stereo not drawn) | -6% | 1.01
CN1CCN(c2cc(-c3ccc4c(c3)OC(F)(F)O4)nc(N)n2)CC1 | 9% | -1.95
CN(C)C1CCCN(CC=CCN2CCCC(N(C)C)C2)C1 (stereo not drawn) | -10% | 1.67
Cc1oc2nc1C(=O)N[C@@H](C(C)C)c1nc(cs1)C(=O)NCCNCCCC(=O)N[C@H]2Cc1ccccc1 | -4% | 0.65
c1cc2ncc(-c3ccc(NCC4CCOCC4)nc3)cn2n1 | -1% | 0.32
Cc1nn(C(C)C)c(C)c1-c1cc(C(=O)NCCc2cn(CCC(C)C)c3ccccc23)n[nH]1 | 1% | -0.17
CCn1cc(CNc2cccc3nc(C(F)F)sc23)cn1 | 0% | 0.04
Nc1nc(Nc2nc(N3CCCC3)cc(C(F)(F)F)n2)cc(C(F)(F)F)n1 | -7% | 1.29
Cn1c(-c2ccccc2O)cc2ccccc21 | 5% | -0.83
